Experimental data as given in the RNAGym collection of RNA variant scans (doi:10.7554/elife.90254).
Read counts are not given, so values of variants with three or more changes are uncertain.

B1: OR4K15 (parent)
chain: GUUAACGGUCAUAGGCCAUGGAAACUAGGAGCACCAUUUCGCUGCCAGUGAAGAAAUGAACAAAGAAAAUCUGGGCCAGGCAGGCAUCAAAAGAAAUAGUCUUGCGCUCAACCAGAAAGUCUGUAAUCAUUUUAAGGGUA

Variants of: B1
Test: self-cleavage, relative activity (ratio to wild type); higher = more cleavage; in vitro, sequencing; the parent is a self-cleaving ribozyme

| Variant | self-cleavage |
| --- | --- |
| G1A A90G A96G | 0.88 |
| G1A G7U U26C G29U U49G A66G U127A | 2 |
| U2A U100C U108C | 0.17 |
| U2A U38G A47U A54G | 0.5 |
| U2A U19C A22G A51G | 0.96 |
| U2C A23U G50U U108C | 0.03 |
| U2C A22G U49C | 0.86 |
| U2C A54G A125G | 0.83 |
| G1C A51U U87C A89U C128A U132C | 1.17 |
| U2C A33G A47U U72C U102C | 0.31 |
| G1U A18G A63G | 0.77 |
| U2A U120C U127C | 0.78 |
| U2C A24G A33G A54G A68U | 1.27 |
| U2C C46U A95G G106A U108C | 0.01 |
| U2A A55G A67G | 1.64 |
| U2C A60U U100C | 1.3 |
| G1C U2C U26A A36G A56G | 0.8 |
| U2C A5G A24C A89G U100C | 0.73 |
| U2A A30G A33U U38C | 1.02 |
| U2C U26C U70G A92G A118U U122A U127C | 0.47 |
| U2C A18G A33G | 1.57 |
| U2C A23G U37C U38C U57G A94G U100C U103C U130C | 1.39 |
| U2A A116G A118U | 0.08 |
| U2C A18G A22G A98U U120C | 0.98 |

| Variant | self-cleavage |
| --- | --- |
| U2C U3C U9C U120A | 1.23 |
| U2A U12A A96U | 1.19 |
| U2C U87C A114G | 0.16 |
| U2C A47U A56U U132C | 0.77 |
| U2C U9C U43C U100C A114G U122C | 0.72 |
| U2C A69U U87C | 1.8 |
| U2C A5G A86G | 1.26 |
| U2A A23G U49C A91U | 0.83 |
| U2G A63G A94U | 0.5 |
| U2A A69G U100C | 0 |
| U2C U9C U38A A59G U100C | 1.8 |
| U2C A30G A47G A60G A111G U120C | 0.03 |
| U2C A5G U12C U37C A64G A69G G75A A118G | 0.21 |
| U2C U9A U12C A90G U139C | 1.28 |
| U2C A22G A91G A94G | 1.19 |
| U2C U49C A66G A68G U127C A129G | 0.32 |
| U2C C35U A117G U127C | 0.4 |
| G1A A23U C45U U127C | 0.97 |
| U2C A11G A62G | 1.3 |
| U2A A30U U57C A89G | 1.34 |
| U2C A30U U57C A59G A69G A95G | 0.66 |
| U2C A51G A82G A114U | 0.07 |
| U2C C32A A90U | 1.07 |
| U2C G21A G74A U130C | 0.3 |

| Variant | self-cleavage |
| --- | --- |
| U2C A13G A54G U120C U139C | 0.05 |
| U2A U57C U108C | 0.05 |
| U2C U9C A33G U100C | 1.76 |
| U2C A5G U38C A126G U127A | 0 |
| U2C A52G A63G A129G | 0.5 |
| U2C A23G G53U U72C | 0.11 |
| U2C A5G A30G G74A | 0.2 |
| U2C A23G G137A | 1.79 |
| U2C A30U G44U A56G A117U | 0.59 |
| U2A G104U A117G | 0.01 |
| U2C U38A A59G U97C A114G | 0.28 |
| U2C A51G A55G | 0.67 |
| U2C U132C A135U | 1.05 |
| U2A A23G U124C | 0.72 |
| U2C A27G A67G U122A A126G | 0.18 |
| U2C U9C A18G A111G | 0.12 |
| U2C A24G U37C A69G | 1.62 |
| U2C U19A A33G A52G U120C U132C | 0.65 |
| U2C U26C A89G A94G U103C A118G | 0.37 |
| U2C A36U U38A A55G U87G | 0.32 |
| U2A U9C A69G U102C G106A | 0.02 |
| U2C U26A A27G U37C A51U A92G U100C U103A | 0.87 |
| U2C C17U U39C A94G U103C A129G | 0.23 |
| U2C A52G A60G G83A | 0.87 |

| Variant | self-cleavage |
| --- | --- |
| U2A A36G A60G A91G | 1.06 |
| U2G A27G U72G | 0.66 |
| G1U A55G A62G A64G U72A U122G | 0.53 |
| U2A A23G A91G A114C | 0 |
| U2A A95G A135U | 0.9 |
| U2C U102C U120C | 1.81 |
| U2C A18U A27G A52G A82U A89G A117G | 0.17 |
| U2C U37G A66G A96G A129G | 1.47 |
| U2C U39A A118G C128A | 0.26 |
| G1A A68G A90G | 1.1 |
| U2C U19C A55G | 0.07 |
| U2A A4U U37C G53A A64G | 1.09 |
| U2A A82G A95G A111G U127G | 0 |
| U2C A98G A118G U139C | 0.21 |
| U2C A22G A51U | 1.04 |
| U2A A91U A134G | 0.82 |
| U2C A33G A67U | 0.51 |
| U2C G84A A94G U122A | 1.42 |
| U2C A82G U124G | 0.2 |
| U2C U43C A91G | 1.16 |
| U2C C77U A114U | 0.09 |
| U2C U38C A54G A59U A60G | 0.76 |
| U2C U9C A96G | 1.46 |
| U2C A24G A94G | 1.7 |

| Variant | self-cleavage |
| --- | --- |
| U2C C10U U38C C121U | 2.12 |
| U2C A18G U37C U39C A67G A135G | 0.62 |
| U2C A18G U19A U122A U130C | 0.61 |
| U2C A11G A96G U122A | 0.71 |
| U2G A22G A111C U127C U133C | 0 |
| U2C U39A A94G U139C | 0.75 |
| U2C U37C U131C | 1.74 |
| U2G A66G A69G U72C | 0.51 |
| U2C A24U U38C A69G A129G | 0.63 |
| U2C A33G A111G | 0.04 |
| U2C A62G A117G | 1.52 |
| U2C A24G A110G U127C | 0.1 |
| U2C A51G A111G U127A | 0.03 |
| U2C U9A A22G A90G A111G | 0.03 |
| U2C A22G A52U A62G A78U A92G | 0.44 |
| U2C A11C U49G | 1.37 |
| U2C A67U A94G | 1.71 |
| U2C A52G U97C U122C | 0.38 |
| U2A U19C U43A A129G | 0.21 |
| U2C A51G A64G A125G | 0.12 |
| U2C C35A A82G A94G | 0.64 |
| U2C A22G U102C | 1.03 |
| U2C A5G U70C A92G A96G U108C | 0.01 |
| U2A U49C U72C C113U | 0 |

| Variant | self-cleavage |
| --- | --- |
| U2C U97G A116G | 0.73 |
| U2C A27U C42U U108C | 0.04 |
| U2C U37C A54G U130C | 0.73 |
| U2G G21A G75C A96G G115A | 0.06 |
| U2C A60G A89G | 1.46 |
| U2A A22G A92G | 1.38 |
| U2C U39G U100C U102C | 2.24 |
| U2C A66G U131C U139C | 1.63 |
| U2C A33U A51G A60G A63G G106U A111G | 0.01 |
| G1C A118G U132C | 0.85 |
| U2C G83U A134G | 0.5 |
| U2C A69G A94C U120C | 0.44 |
| U2C A13G U57C | 1.47 |
| U2C A23G A59G A118U | 0.31 |
| U2C U43A A68G A86G | 0.91 |
| U2C A63G A68U U127C | 0.54 |
| U2C G29A A55G A117U | 0.64 |
| U2C A5G A92G A117U | 0.44 |
| U2C C45A A111U | 0.08 |
| G1A A13G A52U U72C U127C | 0.2 |
| U2C A36G A63G A68G A91G | 0.5 |
| U2C A60G G123U U130C U131C | 1.19 |
| G1U A59G U100C | 1.02 |
| U2C C17U U37C A117G A135U | 1.38 |

| Variant | self-cleavage |
| --- | --- |
| G1A A27G A33G A62G A67G A129G | 1.28 |
| U2C U19C A47G A69G | 0.56 |
| U2A A60G U87C | 0.76 |
| U2C U49C A90G | 0.33 |
| U2C A54U A90G | 0.45 |
| G1A A126U U131C | 2.21 |
| U2A A11G U103G A114G U130C | 0.02 |
| U2C U37C U120C U132C | 1.27 |
| U2A A78G A89G | 0.6 |
| U2C U9A C40A | 0.79 |
| U2C C25U A96G A129G | 1.26 |
| U2A A23G A95G | 1.02 |
| U2A A63G U108C A111G | 0.03 |
| U2C A30G A95G A111G | 0 |
| U2C A13U A69G A96G A135G | 1.15 |
| U2C A24G A62G U122G U131C | 2.23 |
| U2A U3A A24C A116G U130C | 0.72 |
| U2C A51G A67G A86G A95G A96G U97C U131A | 0.92 |
| U2C A5G A36G A92U U97C U132C | 0.28 |
| U2C A24G A92G | 1.81 |
| U2A A18G G58A | 1.02 |
| U2C A63G A91U | 0.76 |
| U2A A96G U127C | 0.71 |
